From ChEMBL document CHEMBL4888484, “Replenishing the malaria drug discovery pipeline: Screening and hit evaluation of the MMV Hit Generation Library 1 (HGL1) against asexual blood stage Plasmodium falciparum ,using a nano luciferase reporter read-out” (2022) come the findings set out here.

SMILES strings stand for the structures. The campaign covered roughly 150,000 compounds. About 540 (0.36%) showed an effect of 50% or more. The list shows a part of the results.

In the experiment the test system is Plasmodium falciparum. As to the kind of experiment: Primary screen in NF54 nanoGlo assay, in single point, at 2uM, 72h; a lower Z score goes with more inhibition. To be noted: timepoint 72 hour. It is filed as functional, Erythrocyte.
With `O=C(CCC(=O)c1ccc2c(c1)OCCCO2)Nc1cccc(S(=O)(=O)N2CCOCC2)c1`, the “% Inhibition” value is given as -2% and the Z score amounted to 0.43.
Taken in the same sequence, the figures for `Cc1cccn2c(CC(=O)N3CC[C@H](Cc4ccc(CO)cc4)C3)cnc12` were -6% and 0.96.
Taken in the same sequence, the figures for `Cc1cc(NC(=O)CCN2CCC[C@H]2c2nc3ccccc3s2)no1` were -21% and 2.11.
The like results for `Cc1ccc2nc(C3CC3)cc(C(=O)N3CC[C@@H](N)C3)c2c1` were, in that order, 0% and -0.05.
Regarding `CCCn1nnnc1CN[C@H](c1ccccc1)C1CCC1`, the “% Inhibition” value is -13% and the Z score is given as 1.51.
Taken in the same sequence, the figures for `CC(C)CN(CC(F)(F)F)C(=O)COc1ccc(CC(N)=O)cc1` were -2% and 0.29.
Consider `CCCn1c(-c2cccc(C(=O)NCc3ccc(Br)cc3)c2)nc2cccnc21`, for which the “% Inhibition” value is reported as -1% and the Z score is recorded as 0.12.
Take `COC(=O)Nc1ccc(C(=O)NC[C@H](C)N2CCc3ccccc32)cc1`: the “% Inhibition” value is given as -13% and the Z score is reported as 2.36.
As to `CC1CCN(Cc2ccccc2CNC(=O)OCC(F)(F)F)CC1`, the “% Inhibition” value is -3% and the Z score turned out to be 0.34.
The like results for `CN1C(=O)CN(C(=O)[C@H]2CCOC2)c2ccccc21` were, in that order, 7% and -0.81.
The like results for `Cc1c(C#N)c(NC(=O)CN2CCc3sccc3C2C)n(CC2CCCO2)c1C` (stereo unspecified) were, in that order, -37% and 4.29.
With `O=C(CN1C(=O)CNC1=O)Nc1ccc(-c2cc3ccccc3o2)cc1`, the “% Inhibition” value was determined as 20% and the Z score was -2.38.
The like results for `Cc1cnc(C(=O)N2CCCC[C@H]2C2(CN)CCC2)cc1C` were, in that order, -5% and 0.85.
Taken in the same sequence, the figures for `CCC1=NO[C@H](C(=O)N2CCC3(CC2)CC(=O)N(Cc2ccccc2)C3)C1` were -8% and 1.6.
In the case of `Cc1noc2ncnc(NC[C@@H](CO)Cc3ccc(F)c(F)c3)c12`, the “% Inhibition” value is -16% and the Z score is on record as 1.4.
Regarding `CC(C(C)S(C)(=O)=O)N(C)C(=O)Cn1ncc2cccnc21` (stereo unspecified), the “% Inhibition” value is -15% and the Z score is 1.77.
In the case of `O=C(Nc1nc(-c2ccccc2)cc(-c2ccc(Cl)cc2)n1)c1ccc(F)cc1`, the “% Inhibition” value was -14% and the Z score turned out to be 2.55.
The like results for `COC(=O)NCc1cccc(Br)c1` were, in that order, -7% and 1.06.
Taken in the same sequence, the figures for `COC(=O)N1CCc2ccc(F)cc2[C@@H]1C(=O)Nc1nc2c(s1)CCCC2` were 0% and 0.
Take `O=C(c1[nH]c2ccc(F)cc2c1Cl)N1CCC(c2nc3ccccc3o2)CC1`: the “% Inhibition” value came to 23% and the Z score is -2.97.
On to `Cc1nc(C)c(C(=O)Nc2ccc3c(c2)CCC(=O)N3)o1`, for which the “% Inhibition” value turned out to be 5% and the Z score is -0.63.
Regarding `O=C(O)[C@H]1CCCN1c1nccc(OCc2ccccc2)n1`, the “% Inhibition” value is -6% and the Z score came out at 0.71.
Turning to `CCc1nc(CN2C(=O)COc3cc(S(=O)(=O)N4CCCCCC4)c(Cl)cc32)no1`, the “% Inhibition” value worked out at 0% and the Z score is reported as -0.05.
Regarding `O=C(N[C@H]1CCCc2ccccc21)c1cc(N2CCOCC2)ncn1`, the “% Inhibition” value is reported as 6% and the Z score is listed as -1.06.
The like results for `Cc1nn(-c2cccc(F)c2)c(N2CCN(C(C)C)CC2)c1CN(C(=O)c1ccc(F)cc1)C(C)C` were, in that order, 9% and -1.18.
The like results for `Cc1cc(C)cc(OS(=O)(=O)CCCN2CCN(C)CC2)c1` were, in that order, -1% and 0.21.
Taken in the same sequence, the figures for `C=CCOc1cccc2c1cc(C(=O)Nc1ccc(C)cc1)n2CC` were -4% and 0.41.
In the case of `CC1(C)N=C(N)N=C(Nc2ccccc2Cl)N1`, the “% Inhibition” value was -18% and the Z score came to 2.8.
On to `Cc1ccc2c(c1)[C@@H](C)CC1(CCCCC1)N2`, for which the “% Inhibition” value was -4% and the Z score is reported as 0.48.
With `C[C@@H](C(=O)O)N(Cc1ccccc1)C(=O)c1cc(C2CC2)n(C)n1`, the “% Inhibition” value is -12% and the Z score worked out at 2.25.
The like results for `Nc1cccc(C(=O)NCCc2noc(C(F)(F)F)n2)n1` were, in that order, -8% and 1.33.
For `CCN(CC)C(=O)N1CC[C@@H](c2nc(C)no2)N(C(=O)C2CCCC2)CC1`, the “% Inhibition” value came out at 4% and the Z score is recorded as -0.88.
Taken in the same sequence, the figures for `COc1ccccc1C1CC1C(=O)C(C#N)c1nc2ccccc2s1` (stereo unspecified) were -3% and 0.34.
The like results for `O=C1NCC2(CCN(C(=O)NCc3cc(-c4ccccc4F)no3)CC2)O1` were, in that order, 4% and -0.61.
For `O=C(NC1CCCC1)c1cc(S(=O)(=O)N2CCCCCC2)ccc1Cl`, the “% Inhibition” value is listed as -4% and the Z score is listed as 0.57.
Taken in the same sequence, the figures for `Cc1cc(NC(=O)NCCc2cn[nH]c2)cs1` were 2% and -0.32.
The like results for `Cc1noc(CO[C@H]2CCCN(S(=O)(=O)c3cccs3)C2)n1` were, in that order, -15% and 1.92.
The like results for `CN1CCN(S(=O)(=O)CC2(C)CCC2)CC1=O` were, in that order, -11% and 2.16.
Consider `COCCN1CCN2C(=O)[C@H](Cc3ccccc3)N(Cc3cccc(OC)n3)C[C@H]2C1=O`, for which the “% Inhibition” value was -10% and the Z score is listed as 0.9.
On to `COc1ccc(C(=O)N2CCC[C@@H]2CC(=O)c2cnn(C)c2)cc1OC(F)F`, for which the “% Inhibition” value is on record as -10% and the Z score was 1.59.
With `CCc1cc2n(Cc3ccc(C(=O)O)cc3)c3ccccc3[n+]2nc1CC`, the “% Inhibition” value is on record as -27% and the Z score was found to be 3.15.
In the case of `CCc1ccc2nc(C)cc(C(=O)N3CCC[C@H](c4nccn4CC)C3)c2c1`, the “% Inhibition” value was -18% and the Z score is listed as 1.69.
The like results for `CN(CC(F)(F)F)C(=O)Nc1cccc(F)c1` were, in that order, -10% and 1.3.
The like results for `COc1ccc(C2(CN3C(=O)N[C@@H](CCC(=O)NC4CCCCCCC4)C3=O)CCOCC2)cc1` were, in that order, -19% and 1.99.
Taken in the same sequence, the figures for `CS(=O)(=O)N1CC(CS(=O)(=O)N2CC(c3ccccc3)C2)C1` were -5% and 0.7.
On to `CCOC(=O)c1nc2ccccc2nc1N1CCCN(S(=O)(=O)c2ccccc2C#N)CC1`, for which the “% Inhibition” value was -8% and the Z score is 0.94.
In the case of `C[C@H](C#N)CNc1ncc(Br)cn1`, the “% Inhibition” value was 35% and the Z score is -1.16.
The like results for `CCCn1ncnc1[C@H](C)NC(=O)Nc1cc(NC(=O)COC)ccc1C` were, in that order, -8% and 0.83.
The like results for `CO[C@H]1CCOC2(CCN(C(=O)c3ccccc3F)CC2)C1` were, in that order, 35% and -0.83.
For `COCC1(C(=O)NCCn2ccnc2)CCC1`, the “% Inhibition” value is given as -8% and the Z score is 1.26.
The like results for `Cc1cc(C)cc(-n2ncc3c(N4C[C@@H]5CC[C@H](O)[C@@H]5C4)ncnc32)c1` were, in that order, -7% and 1.11.
Taken in the same sequence, the figures for `CC[C@H](C)NC(=O)N1CCC(n2cc(Cn3c(C)nc4ccccc43)nn2)CC1` were -15% and 2.07.
For `CCN1CCN(C(=O)c2cc(S(=O)(=O)N3CCCCCC3)ccc2Cl)CC1`, the “% Inhibition” value is listed as -8% and the Z score turned out to be 1.11.
